Experimental findings from the supplement of paper PMC3334620 are described below.

The full ranking holds about 33,000 sequences; the median of “E-score (-0.5 to 0.5)” is about -0.032, and the highest 2% start at about 0.36. Some of the results follow.

The test concerns the target T1, Sko1 (UniProt Q02100).
T1 sequence: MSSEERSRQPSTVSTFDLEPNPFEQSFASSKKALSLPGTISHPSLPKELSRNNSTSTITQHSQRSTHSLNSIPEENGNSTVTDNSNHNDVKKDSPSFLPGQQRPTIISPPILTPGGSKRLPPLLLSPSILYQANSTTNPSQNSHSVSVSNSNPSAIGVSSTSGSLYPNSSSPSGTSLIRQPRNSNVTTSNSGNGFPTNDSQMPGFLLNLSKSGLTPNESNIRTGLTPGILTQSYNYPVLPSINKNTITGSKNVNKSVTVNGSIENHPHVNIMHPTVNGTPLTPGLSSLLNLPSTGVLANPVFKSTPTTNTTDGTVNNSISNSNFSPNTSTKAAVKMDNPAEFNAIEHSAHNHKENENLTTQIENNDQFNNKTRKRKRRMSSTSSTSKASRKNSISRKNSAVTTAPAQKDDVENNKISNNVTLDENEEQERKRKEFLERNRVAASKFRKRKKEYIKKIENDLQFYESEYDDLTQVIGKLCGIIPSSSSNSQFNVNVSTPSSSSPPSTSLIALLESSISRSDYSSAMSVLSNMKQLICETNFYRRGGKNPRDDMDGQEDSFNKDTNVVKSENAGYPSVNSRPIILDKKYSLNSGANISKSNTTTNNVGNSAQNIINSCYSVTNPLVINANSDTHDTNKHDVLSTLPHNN
Put plainly: PBM E-score (8-mer binding enrichment) (E-score (-0.5 to 0.5)); higher = stronger / more preferred TF binding; most listed sequences are background and not binding sites. The following applies: protein concentration: 200 nM; construct: GST-full length. In short, it runs like this:
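Universal all-10-mer Agilent arrays, double-stranded by primer extension on fresh or once-stripped slides, were probed with about 100-200 nM GST-tagged yeast transcription factors made by PURExpress. Fluorescent anti-GST detected bound protein, and masliner normalised the scans. E-scores from the Universal PBM Analysis Suite were given to each ungapped eight-base word pooled with its reverse complement.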
In the case of CGATCGGC, the “PBM E-score” value is -0.0124.

For AAAGTCGC, the “PBM E-score” value stood at 0.0616.

AATCAGAG: the “PBM E-score” value worked out at 0.0386.

In the case of ATGGGCAG, the “PBM E-score” value is -0.208.

As for CCCGAAGA, the “PBM E-score” value is -0.199.

CCAAACGA: the “PBM E-score” value is -0.169.

As to GCGAGAAC, the “PBM E-score” value was -0.0734.

In the case of TACGGCCA, the “PBM E-score” value is -0.151.

With AGTCGACC, the “PBM E-score” value is -0.182.

Consider GCATCCGA, for which the “PBM E-score” value was -0.208.

With GCCCCGCA, the “PBM E-score” value was -0.286.

Turning to CGGCTTTA, the “PBM E-score” value is -0.112.

With ACAGCACA, the “PBM E-score” value turned out to be 0.168.

AACTAACG: the “PBM E-score” value is 0.178.

For the sequence ACCTGTCT, the “PBM E-score” value is -0.255.

ACTTAGCT: the “PBM E-score” value was -0.211.

On to ATCTGTAA, for which the “PBM E-score” value worked out at 0.00807.

For CTGCTTGC, the “PBM E-score” value was -0.136.

In the case of CAATTGAG, the “PBM E-score” value was -0.101.

For GCCTAGGA, the “PBM E-score” value was -0.197.

For the sequence ACACCCCG, the “PBM E-score” value was -0.283.

For GCTAAGTA, the “PBM E-score” value came to 0.0116.

Turning to CCTTTGCA, the “PBM E-score” value is -0.0233.

In the case of AGCGGCCT, the “PBM E-score” value is -0.335.

In the case of AGCTGACA, the “PBM E-score” value was -0.113.

Consider CCGTATTC, for which the “PBM E-score” value came out at 0.0573.

ACGCTCGA: the “PBM E-score” value is 0.0575.

On to GCTGCGCA, for which the “PBM E-score” value was -0.179.

Turning to AGTTGTAG, the “PBM E-score” value is -0.0613.

For ACAAGGGA, the “PBM E-score” value is -0.163.

As to AGTAAGAG, the “PBM E-score” value was -0.117.

TAAACTGA: the “PBM E-score” value amounted to 0.161.

CACACCGC: the “PBM E-score” value is -0.184.

On to AACATAGG, for which the “PBM E-score” value is -0.0811.

For GCGTCACA, the “PBM E-score” value is 0.406.

As for ACGTCGGC, the “PBM E-score” value worked out at 0.348.

For the sequence CCTCCAAA, the “PBM E-score” value was -0.142.

Consider ACCGCACA, for which the “PBM E-score” value was -0.262.

Turning to AAAGGCTA, the “PBM E-score” value was -0.214.

As to ACCTATTC, the “PBM E-score” value is -0.0568.

Regarding GTCATTGA, the “PBM E-score” value was determined as 0.416.

As for AAATCGGA, the “PBM E-score” value is -0.0955.

For GATTCTAA, the “PBM E-score” value was 0.0158.

As to AAGTCCGG, the “PBM E-score” value is -0.268.

CATTTCTC: the “PBM E-score” value worked out at 0.0912.

In the case of GCACTGCC, the “PBM E-score” value is -0.169.

On to TGAGAAAA, for which the “PBM E-score” value is 0.123.

Take AACCCCCA: the “PBM E-score” value is -0.33.

With CAGCGGCC, the “PBM E-score” value was -0.233.

For AAACCGAT, the “PBM E-score” value was -0.0581.

As to GCGGCTCA, the “PBM E-score” value was -0.161.

In the case of ATGTGGTG, the “PBM E-score” value was 0.143.

CGTTATAG: the “PBM E-score” value came to 0.194.

Regarding ACAACAGA, the “PBM E-score” value came out at 0.0102.

For ACATATCG, the “PBM E-score” value came to 0.0818.

Consider CGCACCTA, for which the “PBM E-score” value was 0.027.

With TACCCGAA, the “PBM E-score” value was -0.0322.

As for CGTACTTC, the “PBM E-score” value was found to be 0.289.

For ATAGGCAG, the “PBM E-score” value is -8e-05.

As for GAGGTTCA, the “PBM E-score” value is -0.00892.

In the case of AACTTATC, the “PBM E-score” value was -0.0274.

Regarding ATCACCCC, the “PBM E-score” value is -0.173.

Turning to AGCCCAGA, the “PBM E-score” value was -0.201.

As to CCTAGCCG, the “PBM E-score” value is -0.219.

Consider CTAAAAAC, for which the “PBM E-score” value amounted to 0.0271.

Take GCGCGTCC: the “PBM E-score” value is -0.15.

For the sequence TCGTGTCA, the “PBM E-score” value stood at 0.0636.

As for ACTGATTA, the “PBM E-score” value was 0.14.

As to ACGTTAAA, the “PBM E-score” value was found to be 0.355.

With AAACTATG, the “PBM E-score” value is -0.116.

Consider CCCTGCGC, for which the “PBM E-score” value was -0.19.

In the case of CCACGTAG, the “PBM E-score” value is 0.377.

As for CGTTAAAG, the “PBM E-score” value is 0.105.

As for CGTGCTTC, the “PBM E-score” value is 0.26.

Turning to GCGCTTCA, the “PBM E-score” value is -0.155.

Regarding AAGGGGCG, the “PBM E-score” value is -0.406.

As to AAGACCAA, the “PBM E-score” value is 0.00527.

Take GAGACTGC: the “PBM E-score” value is -0.054.

In the case of GCAACAAA, the “PBM E-score” value came to 0.113.

As to CGAAGCTA, the “PBM E-score” value was determined as 0.104.

CGCCTCTA: the “PBM E-score” value is -0.112.

As to CCGACAGA, the “PBM E-score” value is 0.0108.

Regarding CCCCACAA, the “PBM E-score” value was found to be 0.0461.

ATGCTTGC: the “PBM E-score” value was -0.0401.

Turning to ACATTACG, the “PBM E-score” value is 0.425.

Regarding CTGTACAG, the “PBM E-score” value was -0.119.
